In PubChem BioAssay AID1347044 (National Center for Advancing Translational Sciences (NCATS), 2019):
The other results are listed elsewhere or left out. The main result of the screen is listed elsewhere. These columns were measured beside it and carry no call. Most of these compounds were active or inconclusive in the main read-out, so they are no random draw. Potencies come from curve fits of mixed quality, noted in brackets.

Experiment: Natriuretic polypeptide receptor (hNpr1) antagonism - Confirmation; further: nearly all actives have a fitted effect of over 70% in size
Conditions: HEK293 hNpr1 cGMP GloSensor luminescence, ANP-stimulated; measured here: HEK-hNpr1 cytotoxicity, CellTiter-Glo
Method in brief: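 HEK293 cells co-expressing hNpr1 and GloSensor cGMP sensor preloaded 2 h with 2% GloSensor reagent, compounds added 30 min at room temperature, then 0.1 nM hNppA for 20 min; luminescence read before and after agonist. Cytotoxicity counter-screen run.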
Tags describe the fitted curve by direction and shape.

With `CCCc1cc(C(=O)N2CCC(=O)N(Cc3ccccc3)C(CC)C2)ccn1` (centres undefined) as the compound, how does the CC50 read?
Its CC50 is 9.68 µM [falling, partial curve].

Which CC50 does the source give for `COc1ccc(-c2noc(CC3CCN(C(=O)c4cc(F)cc(F)c4)CC3)n2)cc1` here?
The CC50 was 10.9 µM [falling, partial curve].

With `COc1cc(C(=O)N2CCC(Cc3nc(-c4ccc(F)cc4)no3)CC2)cc(OC)c1OC` as the compound, how does the CC50 read?
The CC50 was 19.3 µM [falling, partial curve].

With `CC(C)Cc1cn(CC2CCCN(C(=O)NC3CCCCCC3)C2)nn1` (centres undefined) as the compound, how does the CC50 read?
The CC50 was 17.2 µM [falling, partial curve].

With `O=C(c1ccc2c(c1)OCO2)N1CCN(c2cc(-c3ccc(Cl)cc3)[nH]n2)CC1` as the compound, how does the CC50 read?
The CC50 was 43.2 µM [falling, single point].

With `O=C(c1ccccc1Br)N1CCN(c2cc(-c3ccc(Cl)cc3)[nH]n2)CC1` as the compound, how does the CC50 read?
The CC50 was 12.2 µM [falling, partial curve].

Which CC50 does the source give for `COc1ccc(NC(=O)N[C@H]2CO[C@H]3[C@@H]2OC[C@H]3OC(=O)Nc2ccc(Oc3ccccc3)cc2)cc1` here?
Its CC50 is 19.3 µM [falling, partial curve].

Which CC50 does the source give for `O=C(Nc1cccc2ccccc12)O[C@@H]1CO[C@H]2[C@@H]1OC[C@@H]2NC(=O)c1cccs1` here?
Its CC50 is 31.4 µM [falling, partial curve].

For `CN(Cc1noc(C2CCCC2)n1)c1cc(C2CC(O)C2)ncn1` (centres undefined), which CC50 is on record?
The CC50 was 19.3 µM [falling, partial curve].

With `COc1ccc(CCC(=O)N2CCCC(n3cc(-c4nc(-c5ccccc5)no4)nn3)C2)cc1` (centres undefined) as the compound, how does the CC50 read?
The CC50 was 27.3 µM [falling, partial curve].

With `COc1ccc(CCC(=O)N2CCC(Cc3nc(-c4ccc(OC)cc4)no3)CC2)cc1` as the compound, how does the CC50 read?
The CC50 was 19.3 µM [falling, partial curve].

With `O=C(CCCc1ccccc1)N1CCC(Cc2nc(-c3ccc(F)cc3)no2)CC1` as the compound, how does the CC50 read?
Its CC50 is 19.3 µM [falling, partial curve].

Which CC50 does the source give for `COc1ccc(-n2nc(C)c([C@H]3C=C[C@@H](OC(=O)N[C@H](C)c4ccccc4)C3)c2C)cc1` here?
The CC50 was 19.8 µM [falling, partial curve].

With `Cc1ncsc1C(=O)N1CCNc2cnc(Nc3cccc(F)c3)nc2C1` as the compound, how does the CC50 read?
Its CC50 is 19.8 µM [falling, partial curve].

With `Cc1ccc(C2Cn3nnc(C(=O)N4CCN(C(=O)c5cccc(Cl)c5)CC4)c3CO2)cc1` (centres undefined) as the compound, how does the CC50 read?
Its CC50 is 19.3 µM [falling, partial curve].

With `CC(=O)NC1(C)CCCN(c2ccc(Oc3ccccc3)cc2)C1` (centres undefined) as the compound, how does the CC50 read?
Its CC50 is 17.7 µM [falling, partial curve].

Which CC50 does the source give for `Cc1noc2c(-c3cn[nH]c3)cc(-c3cccc(C(F)(F)F)c3)nc12` here?
The CC50 was 62.7 µM [falling, single point].

For `COc1ccc(-c2noc(CC3CCN(C(=O)CC4CCCCC4)CC3)n2)cc1`, which CC50 is on record?
The CC50 was 15.3 µM [falling, partial curve].

With `CC1=C[C@@H](CNC(=O)c2ccccn2)[C@H](C(C)C)C[C@H]1Cc1nnc(-c2ccncc2)o1` as the compound, how does the CC50 read?
The CC50 was 31.4 µM [falling, partial curve].

For `Cc1ccc(C(=O)N2CCN(c3cc(-c4ccccc4)[nH]n3)CC2)c(C)c1`, which CC50 is on record?
The CC50 was 19.3 µM [falling, partial curve].

For `COc1ccc(NC(=O)c2ccc(-c3nnc4ccc(NC(=O)C5CCC5)cn34)cc2)cc1`, which CC50 is on record?
Its CC50 is 17.2 µM [falling, partial curve].

With `COc1ccc(C(=O)N2CCC3(CC2)N=C(c2ccc(Cl)cc2)NO3)cc1F` as the compound, how does the CC50 read?
Its CC50 is 21.7 µM [falling, partial curve].

With `Cc1cn2nnc(C(=O)NCc3ccc(C(C)C)cc3)c2c(=O)[nH]1` as the compound, how does the CC50 read?
Its CC50 is 34.3 µM [falling, single point].

For `COc1cccc(CCC(=O)N2CCC(Cc3nc(-c4cccc(OC)c4)no3)CC2)c1`, which CC50 is on record?
Its CC50 is 21.7 µM [falling, partial curve].

With `O=C(c1[nH]nc2c1CCc1ccccc1-2)N1CCC(c2noc(-c3cccnc3)n2)C1` (centres undefined) as the compound, how does the CC50 read?
Its CC50 is 34.3 µM [falling, single point].

For `Cc1nc(C)c(CC(=O)N2CCCC(C)(Cc3ccc4c(c3)OCO4)C2)s1` (centres undefined), which CC50 is on record?
The CC50 was 21.7 µM [falling, partial curve].

With `COc1ccc(-n2nc3n(c2=O)CCN(Cc2cccn2C)C3)cc1` as the compound, how does the CC50 read?
Its CC50 is 53.9 µM [falling, single point].

For `Cc1nccc(N2CCC(Oc3cnc4c(ccn4CCN[S+](C)(=O)[O-])c3)CC2)n1`, which CC50 is on record?
The CC50 was 28 µM [falling, partial curve].

Which CC50 does the source give for `COc1ccc(-c2noc(CC3CCN(C(=O)Cc4ccc(OC)c(Cl)c4)CC3)n2)cc1` here?
Its CC50 is 21.7 µM [falling, partial curve].

For `c1ccc(CCCN[C@H]2CO[C@H]3[C@@H]2OC[C@@H]3n2cc(-c3ccccc3)nn2)cc1`, which CC50 is on record?
Its CC50 is 17.7 µM [falling, partial curve].

For `O=C(NCCc1cccc(Oc2ccccc2)c1)[C@H]1CCC[C@H](O)C1`, which CC50 is on record?
Its CC50 is 24.3 µM [falling, partial curve].

Which CC50 does the source give for `COc1c[nH]c(CN2CCCC(Nc3ccc(C(C)C)cc3)C2)cc1=O` (centres undefined) here?
Its CC50 is 21.7 µM [falling, partial curve].

With `CC(C)c1nncn1C1CCN(S(=O)(=O)c2cccc(Cl)c2)CC1` as the compound, how does the CC50 read?
Its CC50 is 43.2 µM [falling, single point].

For `O=C(Cc1c[nH]c2ncc(-c3ccccc3C(F)(F)F)cc12)NCc1cccnc1`, which CC50 is on record?
Its CC50 is 31.4 µM [falling, partial curve].

Which CC50 does the source give for `O=C(Nc1ccc(Cl)cc1)c1nc2c(o1)CCN(Cc1ccc(F)cc1F)CC2` here?
Its CC50 is 28 µM [falling, partial curve].

With `CCS(=O)(=O)c1ccc2oc([C@H]3CCN(Cc4cccc(Cl)c4)C3)nc2c1` as the compound, how does the CC50 read?
The CC50 was 39.6 µM [falling, partial curve].

With `O=C(N[C@H]1CO[C@H]2[C@@H]1OC[C@@H]2n1nnnc1Oc1ccccc1)c1ccc(C(F)(F)F)cc1` as the compound, how does the CC50 read?
The CC50 was 10.9 µM [falling, partial curve].

Which CC50 does the source give for `Cc1ccc(C(=O)N2CCN(C(=O)c3nnn4c3COC(c3ccc(F)cc3)C4)CC2)cc1C` (centres undefined) here?
The CC50 was 24.3 µM [falling, partial curve].

For `O=C(CCC1CCCC1)N1CCC2(CC1)CC(N(C(=O)c1ccccc1)C1CC1)CCO2` (centres undefined), which CC50 is on record?
Its CC50 is 30.6 µM [falling, single point].
